Results reported in the supplement of paper PMC9174493.
Some of the results follow. Single values of this set are uncertain. Values with irradiation are relative to irradiated vehicle.

test system: A549-Dual; test: NF-kB reporter (SEAP) activity, viability-corrected, relative to vehicle (fold change vs vehicle); higher = more activation of STING-IRF / NF-kB immune response reporter; conditions: 0.1 µM; irradiation: none
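Also: viability correction based on the alamar blue assay, with concentrations leaving 10% survival or less dropped.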

Row | Structure (SMILES) | NF-kB reporter
1 | CC1=C(CC(=O)O)c2cc(F)ccc2/C1=C\c1ccc(S(C)=O)cc1 (stereo unspecified) [Sulindac] | 0.913
2 | C1N2CN3CN1CN(C2)C3 [Methenamine] | 1.13
3 | COc1ccc2cc(C(C)C(=O)[O-])ccc2c1.[Na+] (stereo unspecified) [Naproxen Sodium] | 1.35
4 | Cc1ccc(Cl)c(Nc2ccccc2C(=O)[O][Na])c1Cl [Meclofenamate Sodium] | 1.22
5 | O=C(OCCOCCO)c1ccccc1Nc1cccc(C(F)(F)F)c1 [Etofenamate] | 1.11
6 | O=C([O-])c1cc(N=Nc2ccc(O)c(C(=O)[O-])c2)ccc1O.[Na+].[Na+] [Olsalazine Sodium] | 0.834
7 | CC(=O)Nc1ccc(OC(=O)c2ccccc2OC(C)=O)cc1 [Benorylate] | 0.901
8 | CO/N=C(\C(=O)NC1C(=O)N2C(C(=O)OCOC(=O)C(C)(C)C)=C(C)CSC12)c1csc(N)n1.Cl (stereo unspecified) [Cefetamet pivoxil hydrochloride] | 0.897
9 | CCC(C(=O)O)c1ccc(N2Cc3ccccc3C2=O)cc1 (stereo unspecified) [Indobufen] | 0.94
10 | CS(=O)(=O)O.Cc1ccc(NC(=O)c2ccc(CN3CCN(C)CC3)cc2)cc1Nc1nccc(-c2cccnc2)n1 [Imatinib Mesylate (STI571)] | 0.948
11 | CC(C(=O)O)c1ccc(C(=O)c2ccccc2)s1 (stereo unspecified) [Tiaprofenic acid] | 2.08
12 | CCc1nc(N)nc(N)c1-c1ccc(Cl)cc1 [Pyrimethamine] | 1.65
13 | COc1cc(C2c3cc4c(cc3C(OC3OC5COC(C)OC5C(O)C3O)C3COC(=O)C23)OCO4)cc(OC)c1O (stereo unspecified) [Etoposide] | 1.58
14 | CN(C)CCC(c1ccc(Br)cc1)c1ccccn1.O=C(O)/C=C\C(=O)O (stereo unspecified) [Brompheniramine hydrogen maleate] | 1.6
15 | CC12CCC3c4ccc(O)cc4CC(CCCCCCCCCS(=O)CCCC(F)(F)C(F)(F)F)C3C1CCC2O (stereo unspecified) [Fulvestrant] | 1.05
16 | O=C([O-])CC(O)(CC(=O)[O-])C(=O)[O-].O=C([O-])CC(O)(CC(=O)[O-])C(=O)[O-].[BiH6+3].[K+].[K+].[K+] [Gastrodenol] | 1.47

Row | Structure (SMILES) | NF-kB reporter
17 | CCCCC1(COC(=O)CCC(=O)O)C(=O)N(c2ccccc2)N(c2ccccc2)C1=O [Suxibuzone] | 1.58
18 | O=C(O)Cc1ccccc1Nc1c(Cl)cccc1Cl.OCCN1CCCC1 [Diclofenac Epolamine] | 0.79
19 | Cl.N=C1CCCN1Cc1[nH]c(=O)[nH]c(=O)c1Cl.O=c1[nH]c(=O)n(C2CC(O)C(CO)O2)cc1C(F)(F)F.O=c1[nH]c(=O)n(C2CC(O)C(CO)O2)cc1C(F)(F)F (stereo unspecified) | 1.03
20 | NC(CO)(CO)CO [Trometamol] | 0.823
21 | COc1ccc2c(c1)c(CC(=O)O)c(C)n2C(=O)c1ccc(Cl)cc1 [Indomethacin] | 1.45
22 | Cn1cnc([N+](=O)[O-])c1Sc1ncnc2nc[nH]c12 [Azathioprine] | 1.34
23 | NCCNc1ccc(NCCN)c2c1C(=O)c1ccncc1C2=O.O=C(O)/C=C\C(=O)O.O=C(O)/C=C\C(=O)O [Pixantrone Maleate] | 1.49
24 | CC(=O)Oc1cccc2c1C(=O)c1c(OC(C)=O)cc(C(=O)O)cc1C2=O [Diacerein] | 0.873
25 | CNCC(O)c1ccc(O)c(O)c1.O=C(O)C(O)C(O)C(=O)O (stereo unspecified) [Epinephrine bitartrate] | 1.28
26 | CC1(C(=O)O)CCC2(C)CCC3(C)C(=CC(=O)C4C5(C)CCC(OC6OC(C(=O)O)C(O)C(O)C6OC6OC(C(=O)O)C(O)C(O)C6O)C(C)(C)C5CCC43C)C2C1.N.N (stereo unspecified) [Diammonium Glycyrrhizinate] | 1.37
27 | CCCCCCCCCCCCCCCCCCOP(=O)([O-])OC1CC[N+](C)(C)CC1 [Perifosine (KRX-0401)] | 0.998
28 | COc1c2occc2cc2ccc(=O)oc12 [Methoxsalen] | 1.15
29 | O=C(O)CCCN1CCC(OC(c2ccc(Cl)cc2)c2ccccn2)CC1 (stereo unspecified) [Bepotastine] | 1.97
30 | CN(C)CCCOc1nn(Cc2ccccc2)c2ccccc12.Cl [Benzydamine HCl] | 0.95
31 | CC(C(=O)O)c1ccc2c(c1)[nH]c1ccc(Cl)cc12 (stereo unspecified) [Carprofen] | 1.09
